Single values of this set are uncertain.
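Also: [psi-pin-] Saccharomyces cerevisiae expressing SupN fusions, induced by 100 µM Cu2SO4, selected 7 d at 30 °C without adenine and uracil, scored by deep sequencing of output versus input.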

One data set is described as follows: amyloid nucleation score relative to library mode (yeast Sup35 reporter selection) (log enrichment difference); higher = more amyloid nucleation; sequences are the first 22 residues of the Bri2 peptide extended by up to 12 random residues. Conditions: random library (experiment): 1;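 active = nucleation score significantly above 0 at FDR 0.05; inactive = not significantly above 0 or absent from output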.
For the sequence EASNCFAIRHFENKFAVETLICQAHGQGERLQPY, the amyloid nucleation score result was “inactive”.

As for EASNCFAIRHFENKFAVETLICQAMWDSSHVRF, the amyloid nucleation score worked out at 2.22.

For the sequence EASNCFAIRHFENKFAVETLICQARLEWECNKQA, the amyloid nucleation score result is “inactive”.

As to EASNCFAIRHFENKFAVETLICQARVQTKRSRLE, the amyloid nucleation score result is “inactive”.

EASNCFAIRHFENKFAVETLICQCAVCR registered an amyloid nucleation score of 3.45.

With EASNCFAIRHFENKFAVETLICQCCSVDGRTCCW, the amyloid nucleation score amounted to 8.6.

Sequence EASNCFAIRHFENKFAVETLICQCFLCNLCWECD showed an amyloid nucleation score of 8.8.

Regarding EASNCFAIRHFENKFAVETLICQCGFACRRVTYA, the amyloid nucleation score result is “inactive”.

Consider EASNCFAIRHFENKFAVETLICQCKVPLCMPMLA, for which the amyloid nucleation score entry was “inactive”.

EASNCFAIRHFENKFAVETLICQCMWMCNMVYAT returned an amyloid nucleation score of -0.295.

Take EASNCFAIRHFENKFAVETLICQCNKVCVWDFRW: the amyloid nucleation score amounted to 5.82.

Take EASNCFAIRHFENKFAVETLICQCQTERRKAL: the amyloid nucleation score stood at 6.63.

EASNCFAIRHFENKFAVETLICQCSQRCTGQLG gave an amyloid nucleation score of 5.1.

For the sequence EASNCFAIRHFENKFAVETLICQCVKCGDRFRRL, the amyloid nucleation score turned out to be 2.45.

For EASNCFAIRHFENKFAVETLICQCVPVSAVYDTG, the amyloid nucleation score came out at 5.78.

As to EASNCFAIRHFENKFAVETLICQCVSSTS, the amyloid nucleation score result was “inactive”.

EASNCFAIRHFENKFAVETLICQCWYRCPRECGE: the amyloid nucleation score amounted to 5.03.

Take EASNCFAIRHFENKFAVETLICQDNVVSRLGSAR: the amyloid nucleation score entry was “inactive”.

For the sequence EASNCFAIRHFENKFAVETLICQDWYRGTTSSCR, the amyloid nucleation score result was “inactive”.

For EASNCFAIRHFENKFAVETLICQEDVMEGAEMAP, the amyloid nucleation score result is “inactive”.

As to EASNCFAIRHFENKFAVETLICQEGKD, the amyloid nucleation score entry is “inactive”.

Take EASNCFAIRHFENKFAVETLICQEGTAQLAGQQ: the amyloid nucleation score result is “inactive”.

For the sequence EASNCFAIRHFENKFAVETLICQELDESGRTSTL, the amyloid nucleation score entry was “inactive”.

In the case of EASNCFAIRHFENKFAVETLICQELSTVQMALYG, the amyloid nucleation score is 0.2.

EASNCFAIRHFENKFAVETLICQEPALHVQAPVR: the amyloid nucleation score entry is “inactive”.

On to EASNCFAIRHFENKFAVETLICQESICAHRWARM, for which the amyloid nucleation score entry was “inactive”.

As to EASNCFAIRHFENKFAVETLICQEWRGEGSQGWS, the amyloid nucleation score result is “inactive”.

Regarding EASNCFAIRHFENKFAVETLICQF, the amyloid nucleation score was 3.79.

In turn, EASNCFAIRHFENKFAVETLICQFENRVFMDRPS gave an amyloid nucleation score of 2.11.

Consider EASNCFAIRHFENKFAVETLICQFESMSTHYLSF, for which the amyloid nucleation score result is “inactive”.

For the sequence EASNCFAIRHFENKFAVETLICQFRRGKTPQGCG, the amyloid nucleation score was -0.203.

EASNCFAIRHFENKFAVETLICQFWSRLGRCGSL: the amyloid nucleation score entry was “inactive”.

As to EASNCFAIRHFENKFAVETLICQGEYVSN, the amyloid nucleation score entry was “inactive”.

As to EASNCFAIRHFENKFAVETLICQGIVRYPNWSRS, the amyloid nucleation score came out at 2.47.

For the sequence EASNCFAIRHFENKFAVETLICQGKAS, the amyloid nucleation score result is “inactive”.

Consider EASNCFAIRHFENKFAVETLICQGR, for which the amyloid nucleation score result is “inactive”.

On to EASNCFAIRHFENKFAVETLICQGVVLLVMHAFA, for which the amyloid nucleation score entry is “inactive”.

Sequence EASNCFAIRHFENKFAVETLICQGYRCSRSENLG showed an amyloid nucleation score of 0.683.

As for EASNCFAIRHFENKFAVETLICQHGHKTWSRMQW, the amyloid nucleation score stood at 3.74.

For EASNCFAIRHFENKFAVETLICQHWFIFSCVLSA, the amyloid nucleation score entry is “inactive”.

Consider EASNCFAIRHFENKFAVETLICQHYGSNSRIAIS, for which the amyloid nucleation score entry was “inactive”.

Regarding EASNCFAIRHFENKFAVETLICQIFGNQVRYFLL, the amyloid nucleation score result was “inactive”.

On to EASNCFAIRHFENKFAVETLICQIGRGNAGGRAW, for which the amyloid nucleation score is 3.7.

The data set is the same for the next values; noted with them: random library (experiment): 2.
Turning to EASNCFAIRHFENKFAVETLICQALIEKRSGRGV, the amyloid nucleation score stood at 0.528.

Turning to EASNCFAIRHFENKFAVETLICQC, the amyloid nucleation score is 0.693.

With EASNCFAIRHFENKFAVETLICQCARERSRRFEA, the amyloid nucleation score is 6.71.

As to EASNCFAIRHFENKFAVETLICQCGAIPCRWLGQ, the amyloid nucleation score came to 6.7.

In the case of EASNCFAIRHFENKFAVETLICQCKLDLVYPGLC, the amyloid nucleation score was found to be 2.22.

Turning to EASNCFAIRHFENKFAVETLICQCTCFGVYFSVE, the amyloid nucleation score came to 4.75.

On to EASNCFAIRHFENKFAVETLICQDTSAWLCWPSW, for which the amyloid nucleation score stood at 7.17.

As for EASNCFAIRHFENKFAVETLICQDYTLRSIAIDW, the amyloid nucleation score entry is “inactive”.

On to EASNCFAIRHFENKFAVETLICQEEGQVCAKCR, for which the amyloid nucleation score entry is “inactive”.

As for EASNCFAIRHFENKFAVETLICQEVLCPARCGCR, the amyloid nucleation score result was “inactive”.

For the sequence EASNCFAIRHFENKFAVETLICQEWNYCSNLIFV, the amyloid nucleation score result was “inactive”.

EASNCFAIRHFENKFAVETLICQFAFSKNVRVGK came in with an amyloid nucleation score of 3.26.

As for EASNCFAIRHFENKFAVETLICQFCLFNVVELSV, the amyloid nucleation score was 6.07.

With EASNCFAIRHFENKFAVETLICQFIMHCLMGNGV, the amyloid nucleation score result was “inactive”.

In the case of EASNCFAIRHFENKFAVETLICQFKSSLGRCVRV, the amyloid nucleation score entry is “inactive”.

Consider EASNCFAIRHFENKFAVETLICQFVLVL, for which the amyloid nucleation score entry was “inactive”.

Sequence EASNCFAIRHFENKFAVETLICQGCWLYGLESFT came in with an amyloid nucleation score of 6.82.

As for EASNCFAIRHFENKFAVETLICQGDVCIYLRYTV, the amyloid nucleation score result is “inactive”.

EASNCFAIRHFENKFAVETLICQGLEIGT: the amyloid nucleation score result is “inactive”.

Consider EASNCFAIRHFENKFAVETLICQGVVIKPVLVLL, for which the amyloid nucleation score result was “inactive”.

EASNCFAIRHFENKFAVETLICQHAESRPLKRPA returned an amyloid nucleation score of 0.386.

The sequence EASNCFAIRHFENKFAVETLICQHIVQEGWAGSL registered an amyloid nucleation score of 2.47.

EASNCFAIRHFENKFAVETLICQIHNYISMSGRW registered an amyloid nucleation score of 6.31.

The same data set, now with this note: random library (experiment): 3.
In the case of EASNCFAIRHFENKFAVETLICQAL, the amyloid nucleation score result is “inactive”.

With EASNCFAIRHFENKFAVETLICQAQGMTNGCMGA, the amyloid nucleation score entry is “inactive”.

As for EASNCFAIRHFENKFAVETLICQASLPCLVGVVE, the amyloid nucleation score result is “inactive”.

Consider EASNCFAIRHFENKFAVETLICQASVRHTPEWDS, for which the amyloid nucleation score result was “inactive”.

Regarding EASNCFAIRHFENKFAVETLICQAVANESTSSHG, the amyloid nucleation score result was “inactive”.

EASNCFAIRHFENKFAVETLICQAVEWSGRCSRG displayed an amyloid nucleation score of 1.13.

As to EASNCFAIRHFENKFAVETLICQAVLPWRVILVV, the amyloid nucleation score entry was “inactive”.

As for EASNCFAIRHFENKFAVETLICQCAWSGRVPWAL, the amyloid nucleation score stood at 4.59.

For the sequence EASNCFAIRHFENKFAVETLICQCELLRVDWAW, the amyloid nucleation score result was “inactive”.

As to EASNCFAIRHFENKFAVETLICQCG, the amyloid nucleation score result is “inactive”.

As to EASNCFAIRHFENKFAVETLICQCPV, the amyloid nucleation score entry is “inactive”.

Consider EASNCFAIRHFENKFAVETLICQCRAR, for which the amyloid nucleation score entry was “inactive”.

In the case of EASNCFAIRHFENKFAVETLICQCRVSDAICPLE, the amyloid nucleation score entry is “inactive”.

As for EASNCFAIRHFENKFAVETLICQDRCSRGFLWLC, the amyloid nucleation score result is “inactive”.

For EASNCFAIRHFENKFAVETLICQDRRYGICMASS, the amyloid nucleation score entry is “inactive”.

In the case of EASNCFAIRHFENKFAVETLICQDRYMWNAGYCK, the amyloid nucleation score entry is “inactive”.

Sequence EASNCFAIRHFENKFAVETLICQEFTLAPEGMLR gave an amyloid nucleation score of 3.47.

Consider EASNCFAIRHFENKFAVETLICQEGMKFGQVGHV, for which the amyloid nucleation score result is “inactive”.

For EASNCFAIRHFENKFAVETLICQEGYDL, the amyloid nucleation score entry was “inactive”.

Consider EASNCFAIRHFENKFAVETLICQELLFTCARC, for which the amyloid nucleation score result is “inactive”.

For EASNCFAIRHFENKFAVETLICQEVSTKGPSKEE, the amyloid nucleation score result was “inactive”.

As to EASNCFAIRHFENKFAVETLICQEWTLVI, the amyloid nucleation score result was “inactive”.

EASNCFAIRHFENKFAVETLICQFKVHCCASAHC registered an amyloid nucleation score of 1.71.

As to EASNCFAIRHFENKFAVETLICQG, the amyloid nucleation score entry is “inactive”.

For the sequence EASNCFAIRHFENKFAVETLICQGEAMNQVGCL, the amyloid nucleation score result is “inactive”.

Turning to EASNCFAIRHFENKFAVETLICQGKGILRRECHE, the amyloid nucleation score result was “inactive”.

As to EASNCFAIRHFENKFAVETLICQGMKVRQVANGR, the amyloid nucleation score entry was “inactive”.

For EASNCFAIRHFENKFAVETLICQGRFCRCGVRF, the amyloid nucleation score entry was “inactive”.

EASNCFAIRHFENKFAVETLICQGSAGDASRASG: the amyloid nucleation score entry was “inactive”.

EASNCFAIRHFENKFAVETLICQHELRVRRRADE: the amyloid nucleation score result was “inactive”.

EASNCFAIRHFENKFAVETLICQHVVLGHGRRTW gave an amyloid nucleation score of 2.46.

For the sequence EASNCFAIRHFENKFAVETLICQIATLWSSPTGA, the amyloid nucleation score result is “inactive”.

On to EASNCFAIRHFENKFAVETLICQIGFT, for which the amyloid nucleation score worked out at 5.35.

In the case of EASNCFAIRHFENKFAVETLICQILCFVISRRFS, the amyloid nucleation score result is “inactive”.

For the sequence EASNCFAIRHFENKFAVETLICQIMLLRSFFRVA, the amyloid nucleation score entry is “inactive”.

Consider EASNCFAIRHFENKFAVETLICQIPYRMDLGSR, for which the amyloid nucleation score was -0.414.

Regarding EASNCFAIRHFENKFAVETLICQIRHGLQFCRGP, the amyloid nucleation score result was “inactive”.

Values taken from the supplement of paper PMC12067230.
